{
  "source": "PubChem BioAssay (NCI)",
  "key": {"[1]": {"tested_on": "SF-268 CNS", "experiment": "NCI-60 one-dose screen, 48 h (100 = growth as untreated, 0 = no growth, -100 = all killed)", "details": "2.5 mM"}, "[2]": {"tested_on": "SF-295 CNS", "experiment": "NCI-60 one-dose screen, 48 h (100 = growth as untreated, 0 = no growth, -100 = all killed)", "details": "2.5 mM"}},
  "note": "More than one record can exist for a structure, and the calls need not agree.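 Interpretation: 100, growth as untreated; towards 0, rising growth inhibition; 0, no net growth; 0 to -100, cell death. Compounds scoring below 10 were considered active.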 A number of entries come with more than one value. Only these are listed. There may be further records. These are repeated runs of one drug, at its own concentration, as given; each value is one run. Signs of the kind (2×) give the number of equal values in this list.",
  "data": [
    {"smiles": "O=c1[nH]cc(F)c(=O)[nH]1", "values": [
      {"measurement": "growth", "setting": "[1]; runs of 1995", "result": "inactive: 38.9, 36, 20.3, 59.5, 35, 21.1, 36.9, 30, 16.8, 27, 12, 32.6, 33.7, 60.1, 28.1, 50.5, 45.9, 26.8, 24.3, 39.8, 30.3, 15.9, 29.6, 59.6, 10.8, 29.1, 31.9, 41.1, 29.2, 33.3, 34.6, 35.7, 47.6, 29.3, 28.9, 22.7, 37.5, 41.2% and active: -14.2%, -22.3%"},
      {"measurement": "growth", "setting": "[1]; runs of 1996", "result": "inactive: 47.7, 31.8 (2×), 43.9, 37, 44.9 (2×), 35.4, 20.2, 46.8, 29.7, 15.2, 38.2, 20.5, 39.5, 33, 25.8, 32, 24 (2×), 19.4, 24.4, 28, 43.5, 45.7, 29, 18.6, 12.1, 42.1, 27.8, 45.9, 32.4, 23.3, 21.3, 26.1, 36.4, 20.9, 41.9, 41.5, 36.8, 40.4, 36.2, 60, 44.8, 16.2, 33.8, 56.5, 38.1 (2×), 57.1% and active: -8.05%, 9.31%, 7.88%"},
      {"measurement": "growth", "setting": "[1]; runs of 1997", "result": "inactive: 20.3, 35.7, 41.7, 55.4, 26.6, 22.2, 17.8, 13.1, 51.1, 48.7, 27, 45.4, 28 (2×), 22.7, 37, 19.3, 38.2, 44.4, 25.4, 11.9, 29.4, 25.6, 38.5, 37.1, 28.1, 29.7, 36.4, 10, 38.3, 29, 32.1, 37.7, 10.8, 23, 34.7, 42.5, 56.7, 20.1, 30.9, 11.5% and active: -5.12%, 7.14%"},
      {"measurement": "growth", "setting": "[1]; runs of 1998", "result": "inactive: 48.2, 34.3, 36.2, 23.3, 21.1, 37.2, 16.9, 25.3, 37.9, 78.2, 37.4, 34.8, 41.9, 32.3, 58, 57, 61.2, 37.8, 51.2, 61% and active: -1.56, -16.1, -14.8, 5.35%"},
      {"measurement": "growth", "setting": "[1]; runs of 1999", "result": "inactive: 39.2 (2×), 21.7, 44.4, 22, 28.2, 42.2, 38.2, 25.7, 44, 37.1, 23.9, 33.5, 32.7, 29.3 (3×), 27.2, 32.3, 28.9, 30, 27.1, 32.8, 37.4, 29.9, 40, 54.2, 33.6, 54.3, 37.3, 36.2% and active: 2.1, 3.63, 3.73, 7.13, 3.71, 3.77, 4.5, 2.9, -0.18, 4.31, 4.92%"},
      {"measurement": "growth", "setting": "[1]; runs of 2000", "result": "active: 3.35%, 7.77%, 4.11% and inactive: 11.5%"},
      {"measurement": "growth", "setting": "[2]; runs of 1991", "result": "inactive: 25.5, 14.1, 15.2, 17.9, 22.6, 24, 11.9, 35.3, 20.9, 20.4 (2×), 16.4, 29.6, 31.6 (2×), 26.2, 25.7, 18.3% and active: -12.2%, -0.446%"},
      {"measurement": "growth", "setting": "[2]; runs of 1992", "result": "inactive: 24.6 (3×), 31.1, 31.4, 22.5, 33.2, 31.6, 28.5, 36.8, 13.9, 27.5 (3×), 12.7 (2×), 14, 24.9 (3×), 46, 27.9 (2×), 27.8 (2×), 15.8, 24.4, 47.5, 27.6 (2×), 34, 13.1, 28.8, 32, 36.2, 30.7, 15.3, 46.3, 17.2, 17, 25.5, 33.7, 24.1, 29.9, 35.9, 28.9, 34.9, 25.3, 26.3, 28 (2×), 26.8, 21.3, 20.2, 33.4 (2×), 126, 10.8, 21.6, 35.5, 29.3, 30.2, 26.9 (2×), 47.8, 39.3, 25.4, 22.2, 18, 25.2, 22.7, 28.2, 29.4, 48.7, 16.4, 21, 19.9, 26.2, 22.3, 19.2, 23.2 (2×), 30.5 (2×), 15.4, 29.7, 35.3, 22.8, 11.7, 33.5, 35.1, 35, 34.4, 20.5, 27.3 (3×), 21.1, 25.1, 38.8, 31.2, 38.2, 23.9, 36.1, 17.3, 11.4, 28.7% and active: -2.91%, 1.83%"},
      {"measurement": "growth", "setting": "[2]; runs of 1993", "result": "inactive: 27, 23.3, 35.4, 32.2, 27.5, 29.8 (2×), 20.6, 21.9, 26.1, 27.4, 18.2 (2×), 30.6, 13, 36.1, 28.3, 10.5, 29.1, 22, 17.7, 26.6 (2×), 47.2, 32.6, 20.7, 39.9, 26.9, 24.2, 17.8, 25.9, 20.2, 12.1, 22.7, 99.8, 38.5, 16.3, 43, 11.7, 28.2, 14.3, 21.2, 29, 20.5, 16%"},
      {"measurement": "growth", "setting": "[2]; runs of 1994", "result": "inactive: 28.8, 14.2, 15.3, 30.7, 25.2, 27.4, 19.1, 21.6, 12.3, 31, 32.6, 11.9, 33.9, 19.9, 10.1, 32.9, 26.2, 34.8, 27.5, 23.5, 30.2, 24.6, 20.7, 34, 25.3% and active: 8.41, 4.1, 6.82, 4.37, -29.3%"},
      {"measurement": "growth", "setting": "[2]; runs of 1995", "result": "inactive: 37.6, 25.8, 16.6, 17.6, 23.3, 41.4, 24.9, 14.1, 38.3, 27.7, 32.2, 118, 21.1, 38.5, 32.1 (2×), 22.4, 15.8, 17.9, 18.9, 20.7, 33.8, 44.8, 45.2, 35.2, 28.3, 30.1, 14.7, 42.8, 27.4, 26.4, 14.6, 33, 12.8, 61.5% and active: 9.71%, 1.5%, 9.09%"},
      {"measurement": "growth", "setting": "[2]; runs of 1996", "result": "inactive: 20.4 (2×), 21.2, 23 (2×), 26.2, 23.4, 80.8, 26.9, 38.3, 24.8 (3×), 24.5 (2×), 16.7, 35.2, 21.1, 28, 26.3, 42, 31.5, 27.9, 17.8, 27.1 (2×), 24.7, 25.3, 20.8 (2×), 38.9, 29.1, 49.3, 14.9, 11.3, 36.5, 30.3, 24.2, 28.8, 27.2, 20.6, 24.1, 18.9, 29.9, 41.7, 22.1, 24.4, 38.4, 15.6, 31.1, 44.7, 18.1, 26.4, 22.5, 46.6, 14.4% and active: -0.319%, 5.23%, 2.83%"},
      {"measurement": "growth", "setting": "[2]; runs of 1997", "result": "inactive: 34.6, 32.4, 26.6, 18.1, 26 (2×), 30.1, 18.9, 23.1, 26.1, 15.2, 25.8, 15.1, 17.4, 23, 29.8, 34, 31.2, 10.6, 22.5, 27.5, 34.4, 25, 15.7, 22.1, 21.1, 23.5, 14.7, 12.2, 19.9, 26.8, 19.2, 21, 16.1, 19.5 (2×), 21.5, 26.7, 23.3, 24.7, 29, 28.3, 19.3, 32.8%"},
      {"measurement": "growth", "setting": "[2]; runs of 1998", "result": "inactive: 14.2, 24.6, 26.1, 15.5, 25.6, 37.4, 28.7, 21.9, 29.2, 35.4, 31.3, 25.4, 26.9, 37, 31.1 (2×), 42, 29.9, 23.9, 29, 13, 34.9% and active: -25.9%, 7.69%, 6.61%"},
      {"measurement": "growth", "setting": "[2]; runs of 1999", "result": "inactive: 22.4, 29.7, 20.6, 23.6, 36.8% and active: -20, 3.44, 1.16, -42.4, -28.7, 1.47, 1.17, 3.53, -58, -100, -38%"}
    ]}
  ]
}
